Measured values: PubChem BioAssay AID504706 (National Center for Advancing Translational Sciences (NCATS), 2011)
Out of some 320,000 compounds screened, about 200 (0.062%) were called active. Inconclusive results, whose numbers are uncertain, are shown with a selection of clear calls. The call rests on the fitted dose curve; in most records, active means well fitted activation curve with a large enough effect; inconclusive means small, poorly fitted or top-dose-only effect; inactive means no such curve, though single readings can be large or run the other way. Potencies of inconclusive entries are left out as doubtful fits.

assay: qHTS assay for re-activators of p53 using a Luc reporter; details: H1299 p53-A138V BP100-luciferase reporter, luminescence, 24 h; series mostly up to 92.2 µM; activity change, positive = activation: at the top concentration; further: nearly all actives have a fitted effect of over 45% in size; on activity change, positive = activation: % of control where 0% means no effect
How it was run: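 H1299 (p53-null), stable ts p53-A138V + BP100-Luc; 1000 cells/well, Opti-MEM/10% FBS; cpd 4 pt, 1:5; 24 h, 37 deg C, 5% CO2; detection reagent 10 min RT; luminescence.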
Potency means the concentration at half of the fitted maximal effect; tags describe the fitted curve by direction and shape.

Compound | activity change, positive = activation | Potency
Cc1onc(-c2ccccc2Cl)c1C(=O)Nc1nnc(Cc2ccc(Cl)cc2)s1 | inactive: -3.09% | –
Fc1c(F)c(F)c(/C=N/NC(=S)Nc2cccnc2)c(F)c1F | inactive: -9.92% | –
Nc1c(C(=O)Nc2cccc(Cl)c2Cl)sc2nc(-c3cccnc3)ccc12 | inactive: 12.4% | –
COc1cc(-c2nnc(SCc3cc(=O)oc4cc(O)c(O)cc34)o2)cc(OC)c1OC | – | inconclusive [activator, single point]
CCOc1ccccc1/C=N/NC(=O)c1cccc(S(=O)(=O)N2CCOCC2)c1 | – | inconclusive [activator, single point]
COc1ccccc1C1N=C(c2ccccc2C)NO1 (stereo not drawn) | – | inconclusive [activator, full curve, poor fit]
O=C1NC(c2ccc(Br)cc2)=N/C1=C/c1ccco1 | – | inconclusive [activator, full curve, poor fit]
COc1ccc(NC(=O)COC(=O)C23CC4CC(CC(O)(C4)C2)C3)cc1Cl | – | inconclusive [activator, partial curve, poor fit]
C=CC[C@@H](CC(=O)N[C@@H](CO)Cc1ccccc1)C(=O)N[C@H](COC(=O)[C@H](CC=C)CC(=O)OC(C)(C)C)Cc1c[nH]c2ccccc12 | – | inconclusive [activator, single point]
COc1ccc(-n2cnc3cc(NCc4ccco4)ccc32)cc1 | – | inconclusive [activator, partial curve, poor fit]
CCOC(=O)Cc1csc(NC(=O)CSc2ncnc3c2cnn3-c2ccccc2Cl)n1 | inactive: 21.7% | –
COC(=O)c1cc(C(=O)Nc2cc(C)ccn2)cc([N+](=O)[O-])c1 | – | inconclusive [activator, partial curve, poor fit]
Fc1ccc(NC(=S)NCCN2CCOCC2)cc1 | inactive: 1.14% | –
C=C(C)CSc1nnc(-c2ccc(C)cc2)n1N | – | inconclusive [activator, partial curve, poor fit]
Cc1cc(C)cc(OCC(=O)OCC(=O)Nc2cc(S(=O)(=O)N3CCOCC3)ccc2C)c1 | inactive: 6.6% | –
O=C(NNC(=O)c1n[nH]c(=O)c2ccccc12)c1ccc(Br)cc1 | inactive: 1.01% | –
Cc1ccc(-c2nc(C=Nc3cccc(C)c3)c(O)o2)cc1 | inactive: 5.97% | –
COc1ccc(NC(=O)CNC(c2ccccc2)c2ccccc2)cc1 | – | inconclusive [activator, single point]
O=C(O)c1cccc(N/N=C/C2=C(Cl)c3cc(Cl)ccc3SC2)c1 | – | inconclusive [activator, partial curve, poor fit]
COc1ccc(CC(O)CC2c3c(cc4c(c3OC)OCO4)CCN2C)cc1 (stereo not drawn) | inactive: -5.67% | –
CC(C)C[C@H](CO)N(Cc1ccccc1)S(=O)(=O)N(Cc1ccccc1)[C@@H](CO)CC(C)C | inactive: -13.4% | –
O=C(COc1ccc(-c2nnco2)cc1)Nc1cc([N+](=O)[O-])ccc1F | – | inconclusive [activator, single point]
CCN(CC)c1ccc(NC(=O)Nc2ccccc2)cc1 | – | inconclusive [activator, full curve, poor fit]

Compound | activity change, positive = activation | Potency
COc1ccccc1C(=O)Nc1ccc2c3c(cccc13)CC2 | – | inconclusive [activator, single point]
O=C1NC(=O)/C(=C/c2ccco2)N1 | – | inconclusive [activator, single point]
O=C(OC(C(=O)NCc1ccc2c(c1)OCO2)c1ccccc1F)c1ccco1 (stereo not drawn) | – | inconclusive [activator, full curve]
CCC(=O)NC(c1cc(Cl)c2cccnc2c1O)C(C)C (stereo not drawn) | – | inconclusive [activator, single point]
CN(C)CCCN(C(=O)c1ccc(C(=O)c2ccccc2)cc1)c1nc2cc3c(cc2s1)OCCO3 | – | inconclusive [activator, single point]
O=C(O)C(=O)/C(=C\c1ccsc1)c1ccc2ccccc2n1 | – | inconclusive [activator, full curve, poor fit]
CCOc1ccc(NC(=S)N(CCN2CCOCC2)Cc2ccc3c(c2)CCCN3CC)cc1 | inactive: 4.03% | –
Cc1nc2ccccc2nc(=O)c1NNc1ccccc1 | – | inconclusive [activator, partial curve, poor fit]
Cc1cc(C(=O)Nc2ccccc2)oc(=O)c1 | – | inconclusive [activator, partial curve, poor fit]
Oc1ccc(-c2csc(-c3c[nH]c4ccccc34)n2)c(O)c1 | – | inconclusive [activator, partial curve, poor fit]
Cc1ccc(NC(=O)c2ccccc2OCC(=O)c2ccccc2)cc1 | inactive: -1.17% | –
COc1cccc(/C=N/NC(=O)CNC(=O)C2COc3ccccc3O2)c1O (stereo not drawn) | – | inconclusive [activator, partial curve, poor fit]
O=S(=O)(Nc1ccc(-n2cnnn2)cc1)c1cccc(Cl)c1 | inactive: -11.1% | –
Cn1c(SCC(=O)c2ccc(F)cc2)nnc1-c1cnccn1 | – | inconclusive [activator, full curve, poor fit]
CCOC(=O)C1(Cc2cccc(Cl)c2)CCCN(C(=O)CCOC)C1 (stereo not drawn) | inactive: 2.38% | –
C/C(=N\Nc1nccnc1Cl)c1ccc([N+](=O)[O-])cc1 | – | inconclusive [activator, single point]
CN(C)CCN1CC(O)=C(c2nc3ccccc3s2)C1=N | inactive: 2.77% | –
Cc1ccc(C(=O)c2c3ccc(C(F)(F)F)cc3nn2CCC(N)=O)cc1 | – | inconclusive [activator, partial curve, poor fit]
CC(C)(C)C(=O)COC(=O)c1ccc(O)cc1 | – | inconclusive [activator, single point]
CCN(CC)c1ccc(C(=O)NC(=S)N2CCN(Cc3ccc4c(c3)OCO4)CC2)cc1 | inactive: 5.87% | –
CC(=O)c1ccc(NC(=O)CSc2nc(N)c3cc4c(nc3n2)CCCC4)cc1 | – | inconclusive [activator, full curve, poor fit]
COc1ccc(Oc2coc3cc(OC(=O)/C=C/c4ccc(F)cc4)ccc3c2=O)cc1 | inactive: 6.88% | –
C(=N\Nc1nc2ccccc2s1)/c1cccs1 | – | inconclusive [activator, full curve, poor fit]

Compound | activity change, positive = activation | Potency
OCC1CCCCN1CC(O)COC(c1ccc(F)cc1)c1ccc(F)cc1 (stereo not drawn) | inactive: -5.97% | –
Cc1ccccc1NC(=O)CSC1=NCCN1 | – | inconclusive [activator, full curve, poor fit]
C=CC[C@H](CC(=O)N(CCO)Cc1ccccc1)C(=O)N[C@H](COC(=O)[C@H](CC=C)CC(=O)OC(C)(C)C)Cc1c[nH]c2ccccc12 | – | inconclusive [activator, single point]
Cc1ccnc(NC(=O)Nc2ccc3c(c2)OCO3)c1 | – | inconclusive [activator, partial curve, poor fit]
CCC(C)NC(=O)/C=C/c1cccs1 (stereo not drawn) | – | inconclusive [activator, partial curve, poor fit]
O=C(NCc1cccs1)c1ccc([N+](=O)[O-])cc1Cl | – | inconclusive [activator, single point]
Cc1ccccc1C(=O)N1CCN(c2ncccn2)CC1 | – | inconclusive [activator, single point]
COc1ccccc1OCc1cc(C(=O)NCc2ccc(N3CCCC3=O)cc2)no1 | – | inconclusive [activator, single point]
CCOC(=O)N1CCC(NC(=O)c2ccc3c(c2)sc2nc(-c4ccc(OC)cc4)cn23)CC1 | – | inconclusive [activator, single point]
Cc1c(C(=O)c2ccccc2)oc2ccc3ccccc3c12 | – | inconclusive [activator, full curve, poor fit]
Cc1cc2nc(-c3cccnc3SCC(=O)NCc3ccco3)[nH]c2cc1C | – | inconclusive [activator, partial curve, poor fit]
O=C1c2ccccc2C(=O)N1CN(C(=O)COc1ccc(Cl)cc1Cl)c1cccc(F)c1 | – | inconclusive [activator, partial curve, poor fit]
CCN(CC)CCn1c(NC(=O)c2ccccc2O)nc2ccccc21 | inactive: 33.2% | –
Nc1ccc(-c2ncc(-c3ccccc3)o2)cc1 | inactive: -6.45% | –
NNc1nc2c(F)cc(F)cc2s1 | – | inconclusive [activator, partial curve, poor fit]
Cn1c(SCc2ccccc2Cl)nc2ccccc21 | – | inconclusive [activator, full curve, poor fit]
O=C(COc1ccc(F)cc1Cl)Nc1cccc(S(=O)(=O)N2CCCC2)c1 | – | inconclusive [activator, single point]
COc1cccc(/C=N/Nc2ccc(Cl)nn2)c1 | – | inconclusive [activator, full curve, poor fit]
CCc1ccc(OC(=O)c2ccn(CC)n2)cc1 | – | inconclusive [activator, single point]
CC(C)(C)OC(=O)N/N=C\C=C\c1ccc2c(c1)OCO2 | – | inconclusive [activator, partial curve, poor fit]
COCCOC(=O)C1=C(C)NC(=O)NC1c1cn(-c2ccccc2)nc1-c1cccs1 (stereo not drawn) | inactive: -22.5% | –
CCn1c(CNC(=O)Cc2ccc(OC)cc2)n[nH]c1=S | inactive: 0.197% | –
